# Some of the results follow.
# Legend:
# Experiment in all cases: glycan array binding signal (z-score within array); higher = stronger binding
# Conditions in all cases: glycan notation: IUPAC condensed, linker removed
# Gal(b1-3)GlcNAc = molecular target: Gal(b1-3)GlcNAc
# How it was run: (§1)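 Glycan array binding is given as a within-array Z-score, which can be read as non-binding when negative. The arrays, 3228 of them, came from the Consortium for Functional Glycomics database and were retained only where the protein sequence was available. Z-scores were averaged across arrays of the same protein sequence at different concentrations or buffers and across linkers.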
# [1] = molecular target: Gal(b1-3)GlcNAc(a1-6)Gal(b1-4)GlcNAc
# How it was run: as §1
# [2] = molecular target: Gal(b1-3)GlcNAc(b1-2)Man(a1-3)[Gal(b1-3)GlcNAc(b1-2)Man(a1-6)]Man(b1-4)GlcNAc(b1-4)GlcNAc
# How it was run: as §1
# [3] = molecular target: Gal(b1-3)GlcNAc(b1-2)Man(a1-3)[Gal(b1-3)GlcNAc(b1-2)Man(a1-6)]Man(b1-4)GlcNAc(b1-4)[Fuc(a1-6)]GlcNAc
# How it was run: as §1
# [4] = molecular target: Gal(b1-3)GlcNAc(b1-2)[Gal(b1-3)GlcNAc(b1-6)]Man(a1-6)[Gal(b1-3)GlcNAc(b1-2)Man(a1-3)]Man(b1-4)GlcNAc(b1-4)GlcNAc
# How it was run: as §1
# [5] = molecular target: Gal(b1-3)GlcNAc(b1-3)Gal(b1-3)GlcNAc
# How it was run: as §1
# [6] = molecular target: Gal(b1-3)GlcNAc(b1-3)Gal(b1-4)Glc
# How it was run: as §1
# [7] = molecular target: Gal(b1-3)GlcNAc(b1-3)Gal(b1-4)GlcNAc
# How it was run: as §1
# [8] = molecular target: Gal(b1-3)GlcNAc(b1-3)Gal(b1-4)GlcNAc(b1-6)[Gal(b1-3)GlcNAc(b1-3)]Gal(b1-4)Glc
# How it was run: as §1
# [9] = molecular target: Gal(b1-3)GlcNAc(b1-3)Gal(b1-4)[Fuc(a1-3)]GlcNAc(b1-6)[Gal(b1-3)GlcNAc(b1-3)]Gal(b1-4)Glc
# How it was run: as §1
# [10] = molecular target: Gal(b1-3)GlcNAc(b1-3)GalNAc
# How it was run: as §1
# [11] = molecular target: Gal(b1-3)GlcNAc(b1-6)Gal(b1-4)GlcNAc
# How it was run: as §1
# [12] = molecular target: Gal(b1-3)[Fuc(a1-4)]GlcNAc
# How it was run: as §1
# [13] = molecular target: Gal(b1-3)[Fuc(a1-4)]GlcNAc(b1-2)Man(a1-3)[Gal(b1-3)[Fuc(a1-4)]GlcNAc(b1-2)Man(a1-6)]Man(b1-4)GlcNAc(b1-4)GlcNAc
# How it was run: as §1
# [14] = molecular target: Gal(b1-3)[Fuc(a1-4)]GlcNAc(b1-2)Man(a1-3)[Gal(b1-3)[Fuc(a1-4)]GlcNAc(b1-2)Man(a1-6)]Man(b1-4)GlcNAc(b1-4)[Fuc(a1-6)]GlcNAc
# How it was run: as §1
# [15] = molecular target: Gal(b1-3)[Fuc(a1-4)]GlcNAc(b1-3)Gal(b1-3)[Fuc(a1-4)]GlcNAc
# How it was run: as §1
# [16] = molecular target: Gal(b1-3)[Fuc(a1-4)]GlcNAc(b1-3)Gal(b1-4)GlcNAc
# How it was run: as §1
# [17] = molecular target: Gal(b1-3)[Fuc(a1-4)]GlcNAc(b1-3)Gal(b1-4)[Fuc(a1-3)]GlcNAc
# How it was run: as §1
# [18] = molecular target: Gal(b1-3)[GlcNAc(b1-6)]GalNAc
# How it was run: as §1
# [19] = molecular target: Gal(b1-3)[Neu5Ac(a2-6)]GalNAc
# How it was run: as §1
# [20] = molecular target: Gal(b1-3)[Neu5Ac(a2-6)]GlcNAc(b1-6)Gal(b1-4)Glc
# How it was run: as §1
# [21] = molecular target: Gal(b1-3)[Neu5Ac(b2-6)]GalNAc
# How it was run: as §1
# Gal(b1-4)Gal = molecular target: Gal(b1-4)Gal
# How it was run: as §1
# [22] = molecular target: Gal(b1-4)GalNAc(a1-3)[Fuc(a1-2)]Gal(b1-4)GlcNAc
# How it was run: as §1
# [23] = molecular target: Gal(b1-4)GalNAc(b1-3)[Fuc(a1-2)]Gal(b1-4)GlcNAc
# How it was run: as §1
# Gal(b1-4)Glc = molecular target: Gal(b1-4)Glc
# How it was run: as §1
# Gal(b1-4)Glc6S = molecular target: Gal(b1-4)Glc6S
# How it was run: as §1
# Gal(b1-4)GlcNAc = molecular target: Gal(b1-4)GlcNAc
# How it was run: as §1
# [24] = molecular target: Gal(b1-4)GlcNAc(a1-6)Gal(b1-4)GlcNAc
# How it was run: as §1
# Gal(b1-4)GlcNAc(b1-2)Man = molecular target: Gal(b1-4)GlcNAc(b1-2)Man
# How it was run: as §1
# [25] = molecular target: Gal(b1-4)GlcNAc(b1-2)Man(a1-3)Man(b1-4)GlcNAc(b1-4)GlcNAc
# How it was run: as §1
# [26] = molecular target: Gal(b1-4)GlcNAc(b1-2)Man(a1-3)[Gal(b1-4)GlcNAc(b1-2)Man(a1-6)]Man(b1-4)GlcNAc(b1-4)GlcNAc
# How it was run: as §1
# [27] = molecular target: Gal(b1-4)GlcNAc(b1-2)Man(a1-3)[Gal(b1-4)GlcNAc(b1-2)Man(a1-6)]Man(b1-4)GlcNAc(b1-4)[Fuc(a1-6)]GlcNAc
# How it was run: as §1
# [28] = molecular target: Gal(b1-4)GlcNAc(b1-2)Man(a1-3)[Gal(b1-4)GlcNAc(b1-2)][GlcNAc(b1-4)]Man(b1-4)GlcNAc(b1-4)GlcNAc
# How it was run: as §1
# [29] = molecular target: Gal(b1-4)GlcNAc(b1-2)Man(a1-3)[GlcNAc(b1-2)Man(a1-6)]Man(b1-4)GlcNAc(b1-4)GlcNAc
# How it was run: as §1
# [30] = molecular target: Gal(b1-4)GlcNAc(b1-2)Man(a1-3)[Man(a1-6)]Man(b1-4)GlcNAc(b1-4)GlcNAc
# How it was run: as §1
# [31] = molecular target: Gal(b1-4)GlcNAc(b1-2)Man(a1-6)Man(b1-4)GlcNAc(b1-4)GlcNAc
# How it was run: as §1
binder,measurement,setting,value
"FedF (Escherichia coli), Q47212 (protein) MRLKYILIIPLLLISLSVFASTLQVDKSVSYDWINSSASSAQVTGTLLGTGKTNTTQMPALYTWQHQIYNVNFIPSSSGTLTCQAGTILVWKNGRETQYALECRVSIHHSSGSINESQWGQQSQVGFGTACGNKKCRFTGFEISLRIPPNAQTYPLSSGDLKGSFSLTNKEVNWSASIYVPAIAKSYRLDTSITLPDTVNLKQNQATPVYYTFSAPSVSNTITGIPNQNDMPSSNVKLTIGPIQSKTTALYVQPDATGSWYDLSKSITMTVVKSSMLNFKGINAKPGNVTLSVPIVFEIQ",glycan array binding signal (z-score),Gal(b1-3)GlcNAc,-0.291
same,glycan array binding signal (z-score),[1],-0.2
same,glycan array binding signal (z-score),[2],-0.118
same,glycan array binding signal (z-score),[3],0.741
same,glycan array binding signal (z-score),[4],-0.215
same,glycan array binding signal (z-score),[5],-0.184
same,glycan array binding signal (z-score),[6],-0.188
same,glycan array binding signal (z-score),[7],-0.439
same,glycan array binding signal (z-score),[8],-0.197
same,glycan array binding signal (z-score),[9],-0.196
same,glycan array binding signal (z-score),[10],-0.136
same,glycan array binding signal (z-score),[11],-0.181
same,glycan array binding signal (z-score),[12],-0.25
same,glycan array binding signal (z-score),[13],-0.19
same,glycan array binding signal (z-score),[14],-0.09
same,glycan array binding signal (z-score),[15],-0.049
same,glycan array binding signal (z-score),[16],-0.422
same,glycan array binding signal (z-score),[17],-0.274
same,glycan array binding signal (z-score),[18],-0.315
same,glycan array binding signal (z-score),[19],-0.211
same,glycan array binding signal (z-score),[20],0.106
same,glycan array binding signal (z-score),[21],-0.239
same,glycan array binding signal (z-score),Gal(b1-4)Gal,-0.145
same,glycan array binding signal (z-score),[22],-0.527
same,glycan array binding signal (z-score),[23],-0.484
same,glycan array binding signal (z-score),Gal(b1-4)Glc,-0.274
same,glycan array binding signal (z-score),Gal(b1-4)Glc6S,0.143
same,glycan array binding signal (z-score),Gal(b1-4)GlcNAc,-0.188
same,glycan array binding signal (z-score),[24],-0.099
same,glycan array binding signal (z-score),Gal(b1-4)GlcNAc(b1-2)Man,-0.043
same,glycan array binding signal (z-score),[25],0.061
same,glycan array binding signal (z-score),[26],-0.353
same,glycan array binding signal (z-score),[27],0.052
same,glycan array binding signal (z-score),[28],-0.163
same,glycan array binding signal (z-score),[29],-0.146
same,glycan array binding signal (z-score),[30],0.126
same,glycan array binding signal (z-score),[31],0.184
